Experimental data: the RNAGym collection of RNA variant scans (doi:10.1073/pnas.2313332121)
This sample is rich in variants without activity.

B1: TPR 5TU (parent)
chain: GGAUCUUCUCGAUCUAACAAAAAAGACAAAUCUGCCACAAAGCUUGAGAGCAUCUUCGGAUGCAGAGGCGGCAGCCUUCGGUGGCGCGAUAGCGCCAACGUUCUCAACUAUGACACGCAAAACGCGUGCUCCGUUGAAUGGAGUUUAUCAUG

Variants of: B1
Test: polymerase ribozyme fitness, log enrichment relative to wild type (log ratio); higher = more active; in vitro selection for triplet polymerase activity
In short: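 Fitness is a logarithmic measure of how a genotype enriched relative to the wild type, with replicate averages weighted by inverse variance. The logarithm uses base 2, and enrichment came from Illumina sequencing of input and output libraries. Those libraries were PCR-built, transcribed mutants of each subunit of a heterodimeric triplet polymerase ribozyme, passed through one triplicate in vitro selection round that included frozen incubation at −7 °C, gel excision of extended constructs and streptavidin-bead capture. Genotypes were kept only if they had ≥10 input reads and ≥1 read per output.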

Polymerase ribozyme fitness (log ratio), ≤ -4.2:
U53A G88C U134G A150G
U53A U55A C76A C96A
U53A U55C G81A C85U G94C C96U G100A U134C
U53A U56G C57A G58C G71C U144C
U53A U56G C85U U90C
U53A U56G C93U U102G
U53A U56G U61A U82A C85A A115G C125U A142C
U53A U61C G84C C85U C87G G117A A119C G141A
U53A U77G C85G
U53A U111G
U53A U139A G141A
U53A U139C
U53C G68C A73G C85G G88C A137C G140C
U53G A60G C75U C85A U134G
U53G A89U C96U G143C
U53G C54G C79A U151G
U53G C63U U78A A89G C95G C96G C125A G140C
U53G C76U G94C G126U C129A U130G G136U
U53G C79U U104A A137G
U53G C87A G94U A106U A122G A137U
U53G G67U C93A C108U A115U A142C U144C C149U
U53G G68A A91U A150C
U53G G74A C96U
U53G G80C C95G
U53G G86A C96G A120C U135C
U53G U55A C108G G124U C129A U145G U148A
C54A A60C A73C G86A A89C A119G G126U
C54A A64C C79G A91G C103U U148G
C54A A66G G74A A115G
C54A A73G A91C
C54A A91C
C54A A119C A122G G140U
C54A A137U
C54A C85G C108U
C54A C108A C132U U144G
C54A G58A C69A G71A A97G C103G
C54A G58C G70A C93U U148C
C54A G65A G71C C87A G136A
C54A G68A G80A G83U C93G C114A G140C G141C U145A
C54A G68U C85A U130A
C54A G83C U104G
C54A G88A
C54A G88C C103U C129A G141C
C54A G88C U139A U148C
C54A G88U U146C
C54A G92A A107G U109G G133A U135G
C54A G92C C95A C125G U145G
C54A U55A C96U U104A C105U
C54A U55A G86U C131A
C54A U55A U77G G83U C149G
C54A U55G G58C G92A A97U C125G G128U U135C A138G U139A U145G
C54A U56A G92A A113U C125A U144C
C54A U78C C96U A107U C149G
C54G C57G C72G G92U
C54G C57U G86A C99U C105G U139A
C54G C63A A64C G67A
C54G C63G C72A G74C C87A C116A
C54G C69A
C54G C69G G84C A107U
C54G C75U C85A A106U G117C G141A
C54G C76A A97U A138C
C54G C87G
C54G C87G C132U C149U
C54G C87U C114G A147U
C54G G59A A60U G71C C79G C87A G141C U145C
C54G G59A A73G G83C A98U U148C
C54G G65U G117C U148G
C54G G67U G94C C123U U127C
C54G G68A C75G C76G U90G C95G A119U
C54G G70U U77G G84U C132U
C54G U55C C76A G92U U102A A137U U148A
C54G U56G C96U C132A
C54U C57A G58A G92C G141U U145C
C54U C69U G74A U102G U146G
C54U C72A C95U
C54U C72G A91G G94A G128U G152A
C54U C75G G80C C87G C125U
C54U C76G C93A A110U G141U
C54U C85A C114U C116G
C54U C85U G92C C93G
C54U C85U U101G G140A
C54U C96A A121U U127A G141C
C54U G58A A89U C93U G100A G117C G124A
C54U G58C A73G G86C A119G A121U
C54U G59A U78A C79A C87A U134A
C54U G62U A66G C69G C76U C131G U146G
C54U G65A G71U C93A U127G
C54U G65C A121G A147C
C54U G67C G70C A97C U109A C116U A137U U144A U145G
C54U G67C G84C C85G A106U U146G
C54U G68C U77C G83C
C54U G70C C79A G84U A89U U102A G140A G143U
C54U G70U U78C G94C A115G A122C
C54U G83U C95G C108A A150U
C54U G84A G100C U104C A115U
C54U G84A G124U A137C
C54U G86A G94C A98G A142G
C54U G86C C116U C118G G141C U148G
C54U G86U C96G A110U A113U
C54U G86U U146A U148C
C54U G88U
C54U U56G A73G U77G G86A U102G
C54U U56G U61A C69A
C54U U61A C95U A97C A137C
C54U U77A G83A U145G
C54U U78A G86C G124C G133C G140U G141U
C54U U78A U82G G92A A110U A142G
U55A A60G A97U U101G U109A U134A
U55A A66G C93A A119G A121U
U55A A66U G81C C96U G117A C118A A119G
U55A A73C C87A G141A
U55A A97U U102G
U55A C57A G84U G92U C125G G136C G140C G143A
U55A C57U A73U U127A
U55A C69A C96U U102G
U55A C75A G88C G133U
U55A C76G C103U C105U G143C
U55A C76G U77G U90A G133U G136U
U55A C76U C79U C93G C103A A142G
U55A C79U G84A C108G G124A
U55A C85A A97U A107U
U55A C87A G133A A147U
U55A C87G C93A G117A
U55A C108G A115G A120G C131U
U55A G59C C63A G86A A91G C95U A137G G152A
U55A G62C U127A
U55A G65A G84A C99U C108U
U55A G68A A115C A137C
U55A G70U G80C G84A U101C A106U
U55A G71U U90G
U55A G80U G84U A91G A98U A106U C114U A142U U151G
U55A G81C C85U G128A
U55A G83U C85U U90C A91G A137G
U55A G84C U90C A107U C123G
U55A G92A C93G
U55A G94C C96G
U55A G94U U145C C149G
U55A U56A A60U G81C U102G A121U U145G
U55A U56A A64G C93U
U55A U56A U61C A119U U148C
U55A U61A G71A A97U A122C G128A A142U
U55A U77G C103G C105A U144A
U55A U78G U82G A137U G141A A147U
U55A U90C C95A
U55A U102A U111G A142C
U55C G59C C75A U78C G84C C114G U135G
U55C G84U A106U G143C
U55G A60U G84U C95U C96A A97C G126U U127A C149A
U55G C63A A73G G83A C108G A113U
U55G C76G
U55G C85G G100U U151A
U55G C87A G92A C96U G126A
U55G C87A G124U
U55G C93U A137U
U55G C108G C132A
U55G G58U U77C U82A C87U G100A U139C
U55G G65A A73U G92C G141A C149A
U55G G67A A110C A115G
U55G G68A G80A G88A
U55G G81U A89U C93A A106G
U55G G88C U134C U135A G141A
U55G G94A U135C U139A
U55G G133U A142C
U55G U77G C96A
U56A A60G G81A C108U U127G G143A
U56A A66C G94A A98U
U56A A66G G68A G81C A89C G117U A150U
